Laboratory results as given in publication PMC4336329 (PLoS ONE, 2015).
Among all 310,000 compounds or so, about 14,000 (4.5%) showed an effect of 50% or more. Effects have a minus sign here. The list shows a part of the results.

target: human ether-à-go-go-related gene (hERG) potassium channel (human, UniProt Q12809); test: primary screen, population patch clamp on CHO cells stably expressing hERG
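Note: peak tail current of the secondary pulse compared with the same well before compound.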

Sequence of human ether-à-go-go-related gene (hERG) potassium channel (Q12809 whole entry, looked up): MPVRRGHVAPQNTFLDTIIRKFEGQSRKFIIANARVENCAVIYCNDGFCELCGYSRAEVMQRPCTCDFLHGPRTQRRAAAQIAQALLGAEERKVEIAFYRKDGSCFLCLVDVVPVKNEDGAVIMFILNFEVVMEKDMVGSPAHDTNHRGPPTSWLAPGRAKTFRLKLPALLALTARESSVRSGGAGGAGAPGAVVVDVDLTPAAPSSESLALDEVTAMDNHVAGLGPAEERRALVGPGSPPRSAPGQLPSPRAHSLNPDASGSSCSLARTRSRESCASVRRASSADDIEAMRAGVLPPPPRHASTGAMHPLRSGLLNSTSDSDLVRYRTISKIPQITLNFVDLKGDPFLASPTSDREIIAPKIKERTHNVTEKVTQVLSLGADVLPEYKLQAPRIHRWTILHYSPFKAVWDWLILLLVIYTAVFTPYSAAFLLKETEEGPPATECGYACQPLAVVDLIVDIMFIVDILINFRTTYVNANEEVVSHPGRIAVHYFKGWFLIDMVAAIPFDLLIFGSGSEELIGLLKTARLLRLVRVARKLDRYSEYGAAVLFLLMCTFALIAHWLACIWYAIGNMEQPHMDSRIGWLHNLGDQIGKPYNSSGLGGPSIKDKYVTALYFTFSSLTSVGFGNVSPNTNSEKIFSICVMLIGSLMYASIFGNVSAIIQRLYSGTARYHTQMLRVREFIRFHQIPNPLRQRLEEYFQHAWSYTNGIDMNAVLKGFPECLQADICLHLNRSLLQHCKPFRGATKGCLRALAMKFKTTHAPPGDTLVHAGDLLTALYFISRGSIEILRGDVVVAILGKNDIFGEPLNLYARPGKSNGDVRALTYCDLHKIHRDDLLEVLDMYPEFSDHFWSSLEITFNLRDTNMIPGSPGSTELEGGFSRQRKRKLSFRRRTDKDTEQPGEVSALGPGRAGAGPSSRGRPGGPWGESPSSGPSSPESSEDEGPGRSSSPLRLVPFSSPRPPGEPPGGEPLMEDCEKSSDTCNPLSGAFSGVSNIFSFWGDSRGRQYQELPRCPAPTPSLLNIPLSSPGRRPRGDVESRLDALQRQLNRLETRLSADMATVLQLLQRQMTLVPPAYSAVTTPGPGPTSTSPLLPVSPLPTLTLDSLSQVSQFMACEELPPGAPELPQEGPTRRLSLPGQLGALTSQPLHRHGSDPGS

Row | Compound | hERG current change (%, negative = inhibition) at 10uM [%]
1 | O=C(NC(=S)NCCN1CCOCC1)c1ccccc1Cl | 1.69
2 | CC12CCC(C/C1=N/NC(=O)Nc1ccccc1)C2(C)C (stereo not shown) | 9.49
3 | Cn1c2ccccc2c2ncn(CCCN3CCOCC3)c(=O)c21 | -16.6
4 | CCN(CC)C(=O)COc1ccc(-c2nnc(N3CCCCC3)c3ccccc23)cc1 | -25.4
5 | COc1ccc(C(=O)NCCSCc2ccccc2C)cc1 | -39.3
6 | COc1cccc(CNC(=O)CCC2CCCN(C/C=C/c3ccccc3OC)C2)c1 (stereo not shown) | -68.5
7 | CCCCC(O)(CCCC)C(=O)NN(C(=O)CCl)c1ccccc1 | 14.9
8 | Cc1ccccc1N1CCN(S(=O)(=O)c2ccccc2)CC1 | 0.732
9 | COc1ccccc1C1C(C(N)=O)=C(C)Nc2ncnn21 (stereo not shown) | -9.08
10 | CCC(C)(C)NC(=O)C(c1ccc(OC)cc1)N(C(=O)CCC(=O)Nc1cc(C)on1)c1ccc2c(c1)OCCO2 (stereo not shown) | 11.1
11 | C#CC[N+](C)(C)CC#Cc1ccccc1.[Br-] | 13.3
12 | O=c1oc2ccc3ccccc3c2cc1-c1nc2ccccc2o1 | 14
13 | O=C(Nc1ccccc1)N1CCn2c1nc1ccccc12 | 4.15
14 | COC(=O)N/N=C/c1cn(CCCOc2ccccc2)c2ccccc12 | -4.14
15 | Cc1cccc(C)c1NC(=O)C(c1cccc([N+](=O)[O-])c1)N(C)C(=O)c1ccccn1 (stereo not shown) | -22.5
16 | O=C(Cn1nnc2ccccc2c1=O)Nc1cc(C(F)(F)F)ccc1N1CCOCC1 | -14.5
17 | C/C(CC(=O)Nc1ccc(Cl)c(C(F)(F)F)c1)=N\NC(=O)c1cccc(O)c1 | -24
18 | CCOC(=O)C1=NNC(C(=O)c2ccccc2)C1c1ccc(OC)cc1 (stereo not shown) | -5.14
19 | O=[N+]([O-])c1ccc(N2CCCCC2)c2ncccc12 | -23.7
20 | Cc1[nH]c2ccccc2c1NC(=O)CN1CCN(C(=O)c2ccco2)CC1 | -1.34
21 | O=C(Nc1ccc(N2CCCC2)cc1)c1ccc2ccccc2c1 | 0.743
22 | Cc1ccc(N2C(=O)c3cccc4c([N+](=O)[O-])ccc(c34)C2=O)c2cccnc12 | 2.27

Row | Compound | hERG current change (%, negative = inhibition) at 10uM [%]
23 | O=C(c1ccc([N+](=O)[O-])cc1)N1CCN(C(=O)c2cccs2)CC1 | -70.3
24 | COc1cccc(OC(=O)c2cc3ccccc3oc2=O)c1 | -1.21
25 | CCC1CCCCN1S(=O)(=O)c1ccc(NC(=O)CSc2ncccc2C(=O)O)cc1 (stereo not shown) | -6.73
26 | CCCSc1nnc(NC(=O)Nc2ccc(F)cc2)s1 | 5.54
27 | O=C(NC1CCCC1)C1CC(=O)N(c2ccc(F)cc2)C1 (stereo not shown) | 22.7
28 | CC(=O)NC(CC(=O)NC1CCCCC1)c1ccccc1 (stereo not shown) | -2.93
29 | COCCCNC(=O)c1ccccc1NS(C)(=O)=O | 4.15
30 | COCCOC(=O)C1=C(C)NC(=O)NC1C1CC=CCC1 (stereo not shown) | 0.101
31 | Cn1c(=O)c2c(-c3ccccc3)n(N3CCOCC3)cc2n(C)c1=O | -19.9
32 | NC(=O)c1nsc(C(=O)N(Cc2ccco2)C(C(=O)NCc2ccccc2)c2ccc(O)cc2)c1N (stereo not shown) | -34.5
33 | CCCCOc1ccc(NC(=O)CN2CCN(C(=O)OCC)CC2)cc1.Cl | -28.6
34 | Cn1c(NCc2cccc(Br)c2)nc2ccccc21 | -22.2
35 | Cc1ccc(NC(=O)CNC(=O)c2ccc(Br)o2)nc1 | -7.52
36 | O=C1NC(c2ccccc2)(C(F)(F)F)SC2=NCCCN12 (stereo not shown) | -0.213
37 | COc1ccc(NC(=O)C2CCN(S(C)(=O)=O)CC2)c(OC)c1 | 19.3
38 | Cc1nn(Cc2ccccc2)c(C)c1C(=O)N1CCN(CC(=O)Nc2ccc(F)cc2)CC1 | -62.6
39 | Cc1ccc(OCC(=O)N2CCN(C)CC2)c(Br)c1 | -7.32
40 | COc1ccccc1-c1noc(-c2ccccc2C(=O)N2CCOCC2)n1 | 0.765
41 | O=S(=O)(NCCc1nnc2ccc(SCc3cccnc3)nn12)c1ccccc1 | -2.63
42 | CCc1ccc(C2=NN(C(=O)OC)C(O)(C(F)(F)F)C2)cc1 (stereo not shown) | -7.41
43 | COc1ccc(CC(=O)Nc2ccc(S(=O)(=O)NCC3CCCO3)cc2)cc1 (stereo not shown) | 11.7
44 | O=C(COC(=O)c1ccccc1C(=O)c1ccccc1)NCc1ccc(F)cc1 | -34.9

Row | Compound | hERG current change (%, negative = inhibition) at 10uM [%]
45 | CCn1cc(C(=O)N2CCCC2)c(=O)c2cc(S(=O)(=O)N3CCC(C)CC3)ccc21 | 6.02
46 | COc1ccc(C(=O)NCCS(=O)(=O)NC2CCCC2)cc1 | 14.2
47 | O=C(O)CCCN1C(=O)c2ccc(Oc3cccc([N+](=O)[O-])c3)cc2C1=O | 17.6
48 | Cn1c(=O)c2c(ncn2CC(=O)OCC(=O)NCc2ccc(Cl)cc2)n(C)c1=O | -18.3
49 | O=C1CSC(=S)N1c1ccc(Cl)c(Cl)c1 | 20.7
50 | Nc1c(Cl)ncnc1N/N=C/c1ccc(O)cc1 | 12.2
51 | COc1ccc(CNC(=O)COC(=O)/C=C/c2ccc(Cl)cc2)cc1 | 4.95
52 | O=C(c1ccccc1NS(=O)(=O)c1ccc(Br)s1)N1CCCC1 | -7.15
53 | COc1ccc(C(=O)Nc2c(N)nc(SCC(=O)NCC3CCCO3)[nH]c2=O)cc1 (stereo not shown) | 2.79
54 | O=C(NCc1ccccc1)c1c(O)c2ccccc2[nH]c1=O | 15.4
55 | CCOC(=O)c1ccccc1NC(=O)COC(=O)c1c(CC)noc1C | 11.9
56 | CCCCNC(=S)N(Cc1c(C)noc1C)c1ccccc1 | -17.7
57 | CCOC(=O)C1=C(CC)OC(N)=C(C#N)C1c1ccc(F)cc1F (stereo not shown) | 5.77
58 | Cn1c(NC(=O)c2ccccc2F)cc(=O)n(C)c1=O | -0.469
59 | CC(NC(=O)c1ccccc1)c1ccc(F)cc1 (stereo not shown) | -18.9
60 | CCOC(=O)c1nnn(CC(=O)Nc2ccccc2)c1C(=O)OCC | 13.3
61 | COc1ccccc1OCc1ccc(C(=O)Nc2ccccc2)cc1 | 11.1
62 | O=C(Nc1ccc(Nc2ccccc2)cc1)c1ccc(Cl)cc1 | 2.48
63 | COc1ccccc1CNC(=O)CCS(=O)(=O)c1ccc(Cl)cc1 | -18.3
64 | c1ccc2cc(OCCN3CCCC3)ccc2c1 | -33.1
65 | Cn1c(CC(=O)Nc2ccccc2F)nnc1SCC(=O)NC1CCCCC1 | 7.48
66 | Nn1cnc2sc3c(c2c1=O)CCC3 | 2.29

Row | Compound | hERG current change (%, negative = inhibition) at 10uM [%]
67 | CC(=O)Nc1cccc(C(=O)N2CCN(S(=O)(=O)c3ccc4ccccc4c3)CC2)c1 | -14.4
68 | O=C(c1ccccc1)c1ccc(OCC(O)CNC2CCCc3ccccc32)cc1 (stereo not shown) | -31.7
69 | Cc1ccc(Oc2nc3ccccn3c(=O)c2/C=C(\C#N)C(=O)Nc2c(C)n(C)n(-c3ccccc3)c2=O)cc1 | -2.06
70 | CCOc1cc(/C=C2\N=C(SCC)SC2=O)cc([N+](=O)[O-])c1OC(C)=O | 3.2
71 | CCOc1cc(CNCCc2ccc(S(N)(=O)=O)cc2)ccc1OCC(=O)NC(C)(C)C.Cl | 4.8
72 | COc1ccc(CCN(C)Cc2nc(-c3cnccn3)no2)cc1OC | 19.9
73 | O=C(CSc1nnc(CNC(=O)c2c(F)cccc2Cl)o1)NC1CCCCC1 | 8.13
74 | O=C(O)CCC(=O)N(Cc1cccnc1)Cc1cccc(F)c1 | 6.65
75 | O=C(COc1ccc(NC(=O)c2ccccc2)cc1)c1ccccc1 | 20.3
76 | CCCCC(c1nnnn1CC1CCCO1)N1CCN(c2cccc(C)c2C)CC1.Cl (stereo not shown) | -4.53
77 | COC(=O)c1ccc(-c2nc(-c3ccc(Br)o3)no2)cc1 | 0.438
78 | COc1cc(-c2cc(C(=O)OCC(=O)Nc3ccc4c(c3)OCO4)c3ccccc3n2)cc(OC)c1OC | 1.4
79 | CCOc1cc(C(=S)N2CCOCC2)ccc1OC(=O)/C=C/c1ccc(OC)c(OC)c1 | 14.8
80 | Cc1ccc(NC(=O)CCCN2C(=O)c3cccc4cccc(c34)C2=O)cc1 | 5.46
81 | COc1ccc(OCc2ccc(C(=O)N3CCOCC3)cc2)cc1 | 2.13
82 | NC1=NC(=O)C2(COC(c3ccncc3)OC2)S1 (stereo not shown) | 12.9
83 | CCOC(=O)C1(CCCc2ccccc2)CCN(C(=O)c2ocnc2C)CC1 | -56.1
84 | N#CC1=C(N)Oc2c(ccc3ccccc23)C1c1ccsc1 (stereo not shown) | 17.5
85 | COc1ccc(NC(=O)Cc2nnc(SCC(=O)Nc3cc(C)ccc3OC)n2C)cc1 | -3.42
86 | CCCNC(=O)C1(CC2CC(c3ccccc3)=NO2)CCN(C(=O)CCCCCBr)CC1 (stereo not shown) | -50
87 | O=C(CCSCCc1ccccn1)Nc1c(F)c(F)c(F)c(F)c1F | -23.3
88 | CCOC(=O)c1ccccc1NC(=O)c1cn(-c2ccc(C)c(C)c2)c(=O)c2ccccc12 | -2.12
